Data on 90 molecules can be found in ChEMBL document CHEMBL1157539, “Thousands of chemical starting points for antimalarial lead identification” (Nature, 2010).

Structures are written as SMILES. In all, about 13,000 compounds were measured (“IFI”: median about 4, highest 2% from about 17 on). This is one part of the list.

The experiment is described as follows: GSK_TCMDC: Inhibition Frequency Index (IFI). The number of non-kinase HTS assays where a compound showed > 50 % inhibition, expressed as a percentage of the number of such assays in which the compound was tested (-0 is zero). It is filed as functional.
On to `N#Cc1ccc(-c2ccc(C(=O)NC3CCN(CCN4CCC(c5cn(CCO)c6ccccc56)CC4)CC3)cc2)cc1`, for which the IFI was 1.83%.

As to `Oc1ccc(-c2nc(-c3ccc4oc5ccc(-c6[nH]c(-c7ccc(O)cc7)nc6-c6ccccc6)cc5c4c3)c(-c3ccccc3)[nH]2)cc1`, the IFI worked out at 3.45%.

Take `Fc1ccc2[nH]c(-c3cccc(-c4ccc(CN5CCN(c6ccncc6)CC5)cc4)c3)nc2c1`: the IFI worked out at 5.63%.

Regarding `CC(C)(C)C1CC(=O)CC2C(=O)N(c3ccc(Br)cc3)C(=O)C21` (stereo not given), the IFI was 0.74%.

As to `CCC(C)c1cnc2nc(N)nc(N)c2c1C` (stereo not given), the IFI came to 2.31%.

Turning to `COc1ccc(CNCc2ccsc2)cc1-c1ccc(S(=O)(=O)NCCN2CCCC2)c(C)c1`, the IFI came out at 7.84%.

In turn, `CSc1ccc2ccccc2c1CNCCCCCCNCc1c(SC)ccc2ccccc12` had an IFI of 12.3%.

Take `CCCC(C(=O)OCCN(CC)CC)(c1ccc(Cl)cc1)c1ccc(Cl)cc1`: the IFI was 0.73%.

Consider `Cc1ccc(C)c(NC(=O)CC2C(=O)N(c3ccccc3)C(=S)N2Cc2ccco2)c1` (stereo not given), for which the IFI stood at 0.76%.

Regarding `CC(C)CNCc1ccc(-c2ccccc2CN(C(=O)NCCc2ccccc2)C2CCN(Cc3ccccc3)CC2)cc1`, the IFI stood at 8.51%.

Turning to `Nc1ccc2nc(C=Cc3ccccc3)[nH]c2c1`, the IFI is 3.39%.

In turn, `Oc1ccc(CCNCCCCCCNCCc2ccc(Cl)c(Cl)c2)cc1O` showed an IFI of 8.03%.

`COc1ccc(NC(=O)[C@H](CC(C)C)Nc2cc(C)nc(NCCc3ccccc3OC)n2)cc1`: the IFI came to 10.5%.

The molecule `CCCCCCN1CCC(NCc2cccc([N+](=O)[O-])c2)CC1` returned an IFI of 1.44%.

Turning to `O=C(/C=C/c1ccc(Cl)cc1Cl)NCCCCCN1CCC(c2c[nH]c3ccccc23)CC1`, the IFI amounted to 7.75%.

On to `CC(=O)Nc1ccc(C(=O)Nc2ccc(-c3cccc(-c4nc5ccccc5[nH]4)c3)cc2)cn1`, for which the IFI came out at 3.57%.

Molecule `CCCc1cc(Cc2cnc(N)nc2N)cc(CCC)c1OCCCCC(=O)OC` had an IFI of 6.47%.

As to `CC1N=C(N)N=C(N)N1OCc1ccccc1` (stereo not given), the IFI stood at 3.01%.

As for `Nc1c2c(nc3ccc(C(=O)Nc4ccccc4)cc13)CCCC2`, the IFI amounted to 2.05%.

In turn, `C=CCn1c(=N)c(C(=O)NC2CCCCC2)cc2c(=O)n3cccc(C)c3nc21` had an IFI of 1.79%.

Regarding `COc1ccc(CCNCCCCNCCc2ccc(OC)c3ccccc23)c2ccccc12`, the IFI stood at 13.9%.

In the case of `CC(C)(C)C1CCc2nc(N)nc(N)c2C1` (stereo not given), the IFI was determined as 2.8%.

`Cc1cc(-c2cc(-c3ccc(OCCN(C)C)cc3)[nH]c2-c2ccc3c(c2)CCC3=NO)ccn1`: the IFI was 4.26%.

`CCC(C)NS(=O)(=O)c1ccc2nc(Nc3ccc(C)c(Cl)c3)n(C3CCCCC3)c2c1` (stereo not given): the IFI was 2.19%.

On to `O=C(NCCCCN1CCC(c2ccc3c(c2OCCCO)CCCC3)CC1)c1ccc(-c2ccc(C(F)(F)F)cc2)cc1`, for which the IFI came to 8.62%.

`CC(=O)NC1=NC(C)(C)N(OCc2ccc(Cl)c(Cl)c2)C(NC(C)=O)=N1` registered an IFI of 4.32%.

Turning to `COc1ccc(-c2cncc3ccc(C(=O)NCCCn4ccnc4)nc23)cc1`, the IFI came to 5.49%.

Consider `CC(C)(C)c1ccc(CNC(=O)c2ccc(-c3nc4cc(C(C)(C)C)ccc4[nH]3)cc2)cc1`, for which the IFI amounted to 1.48%.

`COc1cccc(NC(=O)CSc2nc(-c3ccccc3Cl)ns2)c1` showed an IFI of -0%.

`Fc1cccc(COc2ccc(Nc3ncnc4sc(C#C[C@H]5CC[C@H](CN6CCOCC6)N5)cc34)cc2Cl)c1`: the IFI was found to be 2.88%.

In turn, `COc1ccc2c(=NN=Cc3cccnc3)cc(C)[nH]c2c1` gave an IFI of 0.71%.

As to `Cc1ccc(C(=O)Nc2cc(S(=O)(=O)N3CCCC3)ccc2OCC(F)(F)F)cc1`, the IFI amounted to 0.95%.

`Cc1cccc(C(=O)N2CCN(Cc3cccc(NC(=O)c4cccs4)c3)CC2)c1` returned an IFI of 3.85%.

Turning to `CCCCN1CCN(CC(O)CNC(=O)Nc2ccc(Cl)cc2)CC1` (stereo not given), the IFI is -0%.

Consider `Cc1cc(N[C@@H](Cc2ccccc2)C(=O)NCCc2ccccc2)nc(NCCc2ccc(F)cc2)n1`, for which the IFI is 17.1%.

With `O=c1sn(-c2csc3ccccc23)c2ccccc12`, the IFI came out at 18.5%.

For `COc1cc(Nc2nc(N)c3cc(OC)c(OC)cc3n2)cc(OC)c1`, the IFI is 1.67%.

Take `O=C(Nc1cccnc1)c1cc(C(=O)Nc2cccnc2)cc([N+](=O)[O-])c1`: the IFI is -0%.

Turning to `Cc1noc(C)c1-c1cccc(CNCc2cccc(-c3cccc(-c4nc5cccc(C)c5[nH]4)c3)c2)c1`, the IFI was found to be 1.94%.

Molecule `c1cc2[nH]c(CCc3nc4cc(C5=NC6CCCCC6N5)ccc4[nH]3)nc2cc1C1=NC2CCCCC2N1` (stereo not given) yielded an IFI of 4.35%.

For the molecule `CC(=O)N(C)c1cccc(C(=O)Nc2ccc(-c3cccc(-c4nc5cc(C(F)(F)F)ccc5[nH]4)c3)cc2)c1`, the IFI was found to be 7.76%.

In turn, `O=c1cc(N2CCCNCC2)c(Cl)nn1Cc1ccc(NS(=O)(=O)c2ccc(Oc3ccccc3)cc2)cc1` registered an IFI of 7.64%.

Regarding `O=C(NC1CCN(c2ccnc3cc(Cl)ccc23)C1)c1ccc(F)cc1` (stereo not given), the IFI amounted to 1.54%.

The molecule `COc1cc2c(cc1C(F)(F)F)N(C(=O)Nc1cc(F)cc(-c3cncnc3)c1)CC2` registered an IFI of 4.38%.

On to `COc1ccc(N2CCN(C(CNC(=O)C3CCCCC3)c3ccc4c(c3)OCO4)CC2)cc1` (stereo not given), for which the IFI came to 0%.

For the molecule `O=C(Nc1cc(F)cc(-c2cccnc2)c1)c1ccc2c(=O)n(Cc3ccccc3)cnc2c1`, the IFI stood at 0.93%.

Regarding `CN(C(=O)/C=C/c1cc(C(F)(F)F)ccc1F)C1CCN(CCCCCNC(=O)/C=C/c2ccc(Cl)c(Cl)c2)CC1`, the IFI is 12.4%.

For `CCCCN(CCCC)CCOc1cc2c(cc1OC)CCN2C(=O)/C=C/c1ccccc1Cl`, the IFI was found to be 3.65%.

Turning to `Cc1cc2c(cc1C(F)(F)F)N(C(=O)Nc1cnc(OCCN(C)C)c(C(F)(F)F)c1)CC2`, the IFI came to 6.04%.

Take `N[C@@H](Cc1ccc(O)cc1)C(=O)NC(c1ccccc1)c1c(O)ccc2ccccc12` (stereo not given in full): the IFI was 0.73%.

As for `COc1ccc(Nc2nc(NC3CCN(C)CC3)cc(-c3ccc(OC)cc3)n2)cc1`, the IFI came to 8.57%.

`Cc1ccc(CN2CCCN(Cc3ccc(C(=O)Nc4ccc(Cl)cc4)cc3)CC2)s1` gave an IFI of 14.5%.

`Cc1cc([N+](=O)[O-])ccc1N1CCN(CCCCNC(=O)c2ccc(NC(=O)c3ccc(Cl)cc3)cc2)CC1` came in with an IFI of 4.39%.

On to `CCOC(=O)c1ccc(N2CCN(CCCNC(=O)/C(=C/C=C/c3cc4cc(Cl)c(Cl)cc4[nH]3)OC)CC2)cc1`, for which the IFI amounted to 6.11%.

In turn, `CCOc1ccc(OCC(=O)Nc2nc(-c3ccc(OC)cc3)c(C)s2)cc1` returned an IFI of 3.45%.

Turning to `CCOC(=O)c1ccc(NC(=O)N(Cc2ccc(-c3ccc(CN4CCNCC4)cc3)cc2)C2CCN(Cc3ccccc3)CC2)cc1`, the IFI is 7.64%.

As for `Fc1ccc(Nc2ccnc3cc(-c4ccc(CN5CCOCC5)o4)ccc23)c(Cl)c1`, the IFI amounted to 11.3%.

The molecule `Cc1cccc2nc(-c3ccc(-c4ccc(CNCc5ccc(CN)cc5)cc4)s3)[nH]c12` yielded an IFI of 11.9%.

The molecule `Cn1nc(-c2ccc(S(=O)(=O)N3CCC(CCN4CCC(c5c[nH]c6ccccc56)CC4)CC3)s2)cc1C(F)(F)F` returned an IFI of 3.52%.

`COc1ccc2nccc([C@@H](O)CN3CCC(NCc4nc5ccccc5s4)CC3)c2c1` had an IFI of 5.11%.

For the molecule `CCN(c1ccccc1)S(=O)(=O)c1ccc(OC)c(NC(=O)c2cccc(C(F)(F)F)c2)c1`, the IFI was found to be 3.61%.

In turn, `Cc1cc(-c2ccnc(Nc3cccc(C#N)c3)n2)cc(C)c1O` returned an IFI of 3.57%.

On to `CN1CCCN(Cc2ccc(-c3cccc(NC(=O)c4ccc(C#N)cc4)c3)cc2)CC1`, for which the IFI is 3.92%.

`COc1ccccc1N(C)CCNc1cc(C)nc(Nc2ccc(C)cc2)n1` yielded an IFI of 6.25%.

Regarding `CC(C)(C)C(=O)Oc1ccc(CC2NCCc3cc(OC(=O)C(C)(C)C)c(OC(=O)C(C)(C)C)cc32)cc1OC(=O)C(C)(C)C` (stereo not given), the IFI is 0.7%.

With `ON=C1CCc2cc(-c3[nH]c(-c4cccc(OCCNCc5ccc(F)cc5)c4)nc3-c3ccncc3)ccc21`, the IFI stood at 5.19%.

`CC(C#N)Cc1ccc(-c2cnc(N)c3cc(-c4ccnc(N)n4)ccc23)cc1` (stereo not given) returned an IFI of 10.9%.

In turn, `Cc1cccc2nc(-c3cccc(-c4cccc(CNCCCN5CCCC5=O)c4)c3)[nH]c12` yielded an IFI of 4.9%.

Turning to `COc1ccc2[nH]c3ccccc3c(=O)c2c1`, the IFI came to 2.26%.

Turning to `COc1ccc(CC(=O)NC2CCN(c3ccnc4cc(Cl)ccc34)C2)cc1` (stereo not given), the IFI amounted to 1.54%.

In the case of `CCc1cn2c3c(cc(C(=O)N[C@@H](Cc4ccccc4)[C@H](O)CNCc4ccccc4C)cc13)N(C)S(=O)(=O)CC2`, the IFI is 6.52%.

On to `Cc1ccc(NC(=O)NC2CCN(c3ccnc4cc(Cl)ccc34)C2)cc1` (stereo not given), for which the IFI was found to be 3.08%.

The molecule `Cc1ccccc1CNc1nccc(NCCC(=O)Nc2ccccc2)n1` yielded an IFI of 12.2%.

On to `CN1CCN(CC2(Nc3nccc(NCCc4cn(C)c5ccccc45)n3)CCCCC2)CC1`, for which the IFI was found to be 14.3%.

`O=C(/C=C/c1ccc(Cl)c(Cl)c1)N1CCC(CCCN2CCC(c3c[nH]c4ccc(O)cc34)CC2)CC1` registered an IFI of 10.2%.

Molecule `COC(=O)c1ccc(Nc2nccc(Nc3ccc(Oc4ccccc4)cc3)n2)cc1` returned an IFI of 1.44%.

Take `CC1(C)N=C(N)N=C(N)N1c1ccc(I)cc1`: the IFI is -0%.

`CN(C)CCNC(=O)c1ccc(-c2cnc3ccc(NCc4ccc(Cl)c(Cl)c4)nn23)cc1` showed an IFI of 9.02%.

For `COc1cc(NC(=O)c2c(-c3c(F)cccc3Cl)noc2C)c(OC)cc1Cl`, the IFI turned out to be 0.7%.

In the case of `Cc1cc(F)ccc1-c1nc(NCC(O)CNCCc2ccccc2)nc2c1ccc(=O)n2-c1c(F)cccc1F` (stereo not given), the IFI turned out to be 5.47%.

Turning to `Cc1cc(OCCCNC(=N)c2ccc3ccccc3c2)c(C(C)C)cc1Cl`, the IFI worked out at 13%.

With `Cc1sc(N2CCN(C)CC2)nc1C(=O)Nc1ccc(F)cc1C(F)(F)F`, the IFI is -0%.

`c1ccc(CNCCn2c(-c3ccc4c(c3)CCO4)nc3c(N4CCCC4)cccc32)cc1` yielded an IFI of 3.47%.

For the molecule `COc1ccc(C2C(C(=O)Nc3ccc(C)cc3Br)c3ccccc3C(=O)N2C)cc1` (stereo not given), the IFI is 0.7%.

In the case of `COc1cccc(C(=O)Nc2nc3c(s2)CCN(Cc2ccccc2N2CCNCC2)CC3)c1`, the IFI came out at 9.38%.

`COc1ccc(NC(=O)[C@H](CC(C)C)Nc2cc(C)nc(NCCc3cccs3)n2)cc1` came in with an IFI of 7.14%.

As for `CCC(C)NS(=O)(=O)c1ccc2nc(Nc3cccc(SC)c3)n(C(C)C(C)C)c2c1` (stereo not given), the IFI is -0%.

Consider `COc1cc(Cc2cnc(N)nc2N)cc(OC)c1OCCNC(=O)[C@@H](N)CCC(=O)O`, for which the IFI was 0%.

`O=C(/C=C/C=C/c1ccc(Cl)c(Cl)c1)NCCCCCN1CCCC2CCCCC21` (stereo not given) displayed an IFI of 5.19%.

In turn, `COc1ccc(-c2cccc(NC(=O)c3cccc(C#N)c3)c2)cc1CN1CCNCC1` yielded an IFI of 4.95%.
